Target: histone H4 (recombinant) (human, UniProt P62805)
Experiment: SEC

B1: CENP-A^H115A/L128A (recombinant) (natural protein)
chain: not shown
B1: binds.

Source: PMC3353549 (Developmental Cell, 2012)
